Results as given in the supplement of paper PMC8728848.
The list shows a part of the results.

Key:
Assay in all cases: glycan array binding signal (z-score within array); higher = stronger binding
Conditions in all cases: glycan notation: IUPAC condensed, linker removed
[1] = biological target: Neu5Ac(a2-3)Gal(b1-4)GlcNAc(b1-2)Man(a1-3)[GlcNAc(b1-2)Man(b1-4)GlcNAc(b1-2)Man(a1-6)]Man(b1-4)GlcNAc(b1-4)GlcNAc
Summary of the method: (§1)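 Glycan array data were curated from 3228 arrays in the Consortium for Functional Glycomics database and kept only where the protein sequence was available. Glycan names were converted to IUPAC-condensed notation, and columns mapping to the same glycan were averaged. The binding signal is a within-array Z-score, averaged across arrays of the same protein sequence at different concentrations or buffers and across linkers. Negative Z-scores can be read as non-binding.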

[2] = biological target: Neu5Ac(a2-3)Gal(b1-4)GlcNAc(b1-2)Man(a1-3)[Neu5Ac(a2-6)Gal(b1-4)GlcNAc(b1-2)Man(a1-6)]Man(b1-4)GlcNAc(b1-4)GlcNAc
Summary of the method: as §1

[3] = biological target: Neu5Ac(a2-3)Gal(b1-4)GlcNAc(b1-3)Gal
Summary of the method: as §1

[4] = biological target: Neu5Ac(a2-3)Gal(b1-4)GlcNAc(b1-3)Gal(b1-3)GlcNAc
Summary of the method: as §1

[5] = biological target: Neu5Ac(a2-3)Gal(b1-4)GlcNAc(b1-3)Gal(b1-4)GlcNAc
Summary of the method: as §1

[6] = biological target: Neu5Ac(a2-3)Gal(b1-4)GlcNAc(b1-3)Gal(b1-4)GlcNAc(b1-3)Gal(b1-4)GlcNAc
Summary of the method: as §1

[7] = biological target: Neu5Ac(a2-3)Gal(b1-4)GlcNAc(b1-3)Gal(b1-4)[Fuc(a1-3)]GlcNAc
Summary of the method: as §1

[8] = biological target: Neu5Ac(a2-3)Gal(b1-4)GlcNAc(b1-3)GalNAc
Summary of the method: as §1

[9] = biological target: Neu5Ac(a2-3)Gal(b1-4)GlcNAc(b1-6)[Gal(b1-3)]GalNAc
Summary of the method: as §1

[10] = biological target: Neu5Ac(a2-3)Gal(b1-4)GlcNAc(b1-6)[Neu5Ac(a2-3)Gal(b1-3)]GalNAc
Summary of the method: as §1

[11] = biological target: Neu5Ac(a2-3)Gal(b1-4)GlcNAc6S
Summary of the method: as §1

[12] = biological target: Neu5Ac(a2-3)Gal(b1-4)[Fuc(a1-3)]GlcNAc
Summary of the method: as §1

[13] = biological target: Neu5Ac(a2-3)Gal(b1-4)[Fuc(a1-3)]GlcNAc(b1-3)Gal
Summary of the method: as §1

[14] = biological target: Neu5Ac(a2-3)Gal(b1-4)[Fuc(a1-3)]GlcNAc(b1-3)Gal(b1-4)GlcNAc
Summary of the method: as §1

[15] = biological target: Neu5Ac(a2-3)Gal(b1-4)[Fuc(a1-3)]GlcNAc(b1-3)Gal(b1-4)[Fuc(a1-3)]GlcNAc(b1-3)Gal(b1-4)[Fuc(a1-3)]GlcNAc
Summary of the method: as §1

[16] = biological target: Neu5Ac(a2-3)Gal(b1-4)[Fuc(a1-3)]GlcNAc(b1-3)GalNAc
Summary of the method: as §1

[17] = biological target: Neu5Ac(a2-3)Gal(b1-4)[Fuc(a1-3)]GlcNAc(b1-6)[Gal(b1-3)]GalNAc
Summary of the method: as §1

[18] = biological target: Neu5Ac(a2-3)Gal(b1-4)[Fuc(a1-3)]GlcNAc(b1-6)[Neu5Ac(a2-3)Gal(b1-3)]GalNAc
Summary of the method: as §1

[19] = biological target: Neu5Ac(a2-3)Gal(b1-4)[Fuc(a1-3)]GlcNAc6S
Summary of the method: as §1

[20] = biological target: Neu5Ac(a2-3)Gal6S(b1-4)GlcNAc
Summary of the method: as §1

[21] = biological target: Neu5Ac(a2-3)Gal6S(b1-4)[Fuc(a1-3)]GlcNAc
Summary of the method: as §1

Neu5Ac(a2-3)GalNAc = biological target: Neu5Ac(a2-3)GalNAc
Summary of the method: as §1

[22] = biological target: Neu5Ac(a2-3)GalNAc(b1-4)GlcNAc
Summary of the method: as §1

[23] = biological target: Neu5Ac(a2-3)[GalNAc(b1-4)]Gal(b1-4)Glc
Summary of the method: as §1

[24] = biological target: Neu5Ac(a2-3)[GalNAc(b1-4)]Gal(b1-4)GlcNAc
Summary of the method: as §1

[25] = biological target: Neu5Ac(a2-3)[GalNAc(b1-4)]Gal(b1-4)GlcNAc(b1-3)GalNAc
Summary of the method: as §1

[26] = biological target: Neu5Ac(a2-3)[Neu5Ac(a2-6)]GalNAc
Summary of the method: as §1

Neu5Ac(a2-6)Gal = biological target: Neu5Ac(a2-6)Gal
Summary of the method: as §1

[27] = biological target: Neu5Ac(a2-6)Gal(b1-3)GlcNAc(b1-3)[Gal(b1-4)GlcNAc(b1-6)]Gal(b1-4)Glc
Summary of the method: as §1

Neu5Ac(a2-6)Gal(b1-4)Glc = biological target: Neu5Ac(a2-6)Gal(b1-4)Glc
Summary of the method: as §1

[28] = biological target: Neu5Ac(a2-6)Gal(b1-4)GlcNAc
Summary of the method: as §1

[29] = biological target: Neu5Ac(a2-6)Gal(b1-4)GlcNAc(b1-2)Man(a1-3)Man(b1-4)GlcNAc(b1-4)GlcNAc
Summary of the method: as §1

[30] = biological target: Neu5Ac(a2-6)Gal(b1-4)GlcNAc(b1-2)Man(a1-3)[Gal(b1-4)GlcNAc(b1-2)Man(a1-6)]Man(b1-4)GlcNAc(b1-4)GlcNAc
Summary of the method: as §1

[31] = biological target: Neu5Ac(a2-6)Gal(b1-4)GlcNAc(b1-2)Man(a1-3)[GlcNAc(b1-2)Man(a1-6)]Man(b1-4)GlcNAc(b1-4)GlcNAc
Summary of the method: as §1

[32] = biological target: Neu5Ac(a2-6)Gal(b1-4)GlcNAc(b1-2)Man(a1-3)[GlcNAc(b1-2)Man(b1-4)GlcNAc(b1-2)Man(a1-6)]Man(b1-4)GlcNAc(b1-4)GlcNAc
Summary of the method: as §1

[33] = biological target: Neu5Ac(a2-6)Gal(b1-4)GlcNAc(b1-2)Man(a1-3)[Man(a1-6)]Man(b1-4)GlcNAc(b1-4)GlcNAc
Summary of the method: as §1

[34] = biological target: Neu5Ac(a2-6)Gal(b1-4)GlcNAc(b1-2)Man(a1-3)[Neu5Ac(a2-6)Gal(b1-4)GlcNAc(b1-2)Man(a1-6)]Man(b1-4)GlcNAc(b1-4)GlcNAc
Summary of the method: as §1

[35] = biological target: Neu5Ac(a2-6)Gal(b1-4)GlcNAc(b1-2)Man(a1-6)Man(b1-4)GlcNAc(b1-4)GlcNAc
Summary of the method: as §1

[36] = biological target: Neu5Ac(a2-6)Gal(b1-4)GlcNAc(b1-2)Man(a1-6)[Gal(b1-4)GlcNAc(b1-2)Man(a1-3)]Man(b1-4)GlcNAc(b1-4)GlcNAc
Summary of the method: as §1

[37] = biological target: Neu5Ac(a2-6)Gal(b1-4)GlcNAc(b1-2)Man(a1-6)[GlcNAc(b1-2)Man(a1-3)]Man(b1-4)GlcNAc(b1-4)GlcNAc
Summary of the method: as §1

[38] = biological target: Neu5Ac(a2-6)Gal(b1-4)GlcNAc(b1-2)Man(a1-6)[Man(a1-3)]Man(b1-4)GlcNAc(b1-4)GlcNAc
Summary of the method: as §1

[39] = biological target: Neu5Ac(a2-6)Gal(b1-4)GlcNAc(b1-3)Gal(b1-3)GlcNAc
Summary of the method: as §1

[40] = biological target: Neu5Ac(a2-6)Gal(b1-4)GlcNAc(b1-3)Gal(b1-4)GlcNAc
Summary of the method: as §1

[41] = biological target: Neu5Ac(a2-6)Gal(b1-4)GlcNAc(b1-3)Gal(b1-4)GlcNAc(b1-3)Gal(b1-4)GlcNAc
Summary of the method: as §1

[42] = biological target: Neu5Ac(a2-6)Gal(b1-4)GlcNAc(b1-3)Gal(b1-4)[Fuc(a1-3)]GlcNAc(b1-3)Gal(b1-4)[Fuc(a1-3)]GlcNAc
Summary of the method: as §1

B1: Gal 2 (Canis lupus) (protein)
chain: MSGKFEVMNMDMKLGGTLKIKGKIAGDADGFVINLGQGSDKLNLHFNPRFHESVIVCNSRNWGQEQRDKHMCFSPGSEVKFTVTFENDGFKVKLPDGHQLTFPNRLGHSHLSYLGVQGGLKVSSFKIE
- glycan array binding signal (z-score) [1]: -0.222
- glycan array binding signal (z-score) [2]: -0.113
- glycan array binding signal (z-score) [3]: -0.271
- glycan array binding signal (z-score) [4]: -0.11
- glycan array binding signal (z-score) [5]: 0.01
- glycan array binding signal (z-score) [6]: -0.248
- glycan array binding signal (z-score) [7]: 0.55
- glycan array binding signal (z-score) [8]: -0.323
- glycan array binding signal (z-score) [9]: -0.231
- glycan array binding signal (z-score) [10]: -0.405
- glycan array binding signal (z-score) [11]: 0.184
- glycan array binding signal (z-score) [12]: -0.105
- glycan array binding signal (z-score) [13]: -0.354
- glycan array binding signal (z-score) [14]: -0.014
- glycan array binding signal (z-score) [15]: 0.557
- glycan array binding signal (z-score) [16]: 1.21
- glycan array binding signal (z-score) [17]: 0.092
- glycan array binding signal (z-score) [18]: 0.142
- glycan array binding signal (z-score) [19]: 0.098
- glycan array binding signal (z-score) [20]: 0.103
- glycan array binding signal (z-score) [21]: -0.368
- glycan array binding signal (z-score) (Neu5Ac(a2-3)GalNAc): 0.233
- glycan array binding signal (z-score) [22]: 0.284
- glycan array binding signal (z-score) [23]: -0.298
- glycan array binding signal (z-score) [24]: -0.199
- glycan array binding signal (z-score) [25]: 0.103
- glycan array binding signal (z-score) [26]: -0.387
- glycan array binding signal (z-score) (Neu5Ac(a2-6)Gal): 0.292
- glycan array binding signal (z-score) [27]: -0.515
- glycan array binding signal (z-score) (Neu5Ac(a2-6)Gal(b1-4)Glc): 0.01
- glycan array binding signal (z-score) [28]: -0.063
- glycan array binding signal (z-score) [29]: -0.182
- glycan array binding signal (z-score) [30]: -0.201
- glycan array binding signal (z-score) [31]: -0.18
- glycan array binding signal (z-score) [32]: -0.008
- glycan array binding signal (z-score) [33]: -0.076
- glycan array binding signal (z-score) [34]: 0.083
- glycan array binding signal (z-score) [35]: -0.155
- glycan array binding signal (z-score) [36]: -0.092
- glycan array binding signal (z-score) [37]: -0.361
- glycan array binding signal (z-score) [38]: -0.144
- glycan array binding signal (z-score) [39]: 0.03
- glycan array binding signal (z-score) [40]: 0.189
- glycan array binding signal (z-score) [41]: -0.293
- glycan array binding signal (z-score) [42]: 0.104
